Here are results for 54 compounds from PubChem BioAssay AID1346428 (National Center for Advancing Translational Sciences (NCATS), 2018).

In all, about 48,000 compounds went through this assay and about 1,200 (2.5%) were called active. Not shown: some 2% with an inconclusive outcome.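 Rule for the calls: active = activation of at least 60% and not above a set upper limit (about 1 call in 100 departs from these limits); inconclusive = activation of 40% to 60%, or above that upper limit; inactive = activation under 40%.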 The list shows a part of the results.

Chain of UniProt O75388 (O75388 whole entry, looked up): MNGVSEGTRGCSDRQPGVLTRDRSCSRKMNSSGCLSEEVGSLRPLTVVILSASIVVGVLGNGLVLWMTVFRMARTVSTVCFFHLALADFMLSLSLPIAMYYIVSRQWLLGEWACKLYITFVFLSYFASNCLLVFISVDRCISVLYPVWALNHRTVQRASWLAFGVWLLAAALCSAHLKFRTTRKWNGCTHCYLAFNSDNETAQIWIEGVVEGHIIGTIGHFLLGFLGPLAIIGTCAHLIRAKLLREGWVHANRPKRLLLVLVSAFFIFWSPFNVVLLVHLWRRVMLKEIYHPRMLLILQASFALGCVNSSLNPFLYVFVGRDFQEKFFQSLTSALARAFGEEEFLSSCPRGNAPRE

The target of this assay is Probable G-protein coupled receptor 32 (Homo sapiens) (UniProt O75388). In words: qHTS for Agonists of Human Resolvin D1 Receptor DRV1. Note: 0% is about no effect. Particulars: CHO-K1 GPR32 beta-arrestin PathHunter luminescence, 90 min; at 76.9 µM; hits give high values; zero percent set by DMSO-only wells. In a few lines:
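Engineered CHO-K1 line co-expressing GPR32-ProLink and EA-beta-arrestin. Compound treatment lasted 90 min at 37 °C. Luminescence was recorded after 1 h with substrate at ambient temperature, relative to DMSO basal wells.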
For `Cc1nn(CC(=O)NCc2ccc(Cl)cc2)c(=O)c2cc3sccc3n12`, the activation was inactive: 1.84%. For `CN1CCN(c2c(F)cc3c(=O)c(C(=O)O)cn4c3c2SCC4)CC1` the value was inactive: 3.03%; for `COC(=O)c1scc(-c2ccc(C)cc2)c1S(=O)(=O)Nc1ccc(F)cc1F`, inactive: -11%. For `CC(=O)c1ccc(NC(=O)C2Cc3ccccc3N2C(=O)c2ccccc2)cc1` (centres undefined) the value was inactive: -8.81%; for `Cc1ccc(N2CCN(S(=O)(=O)c3cc(C(=O)Nc4cc(Cl)cc(Cl)c4)ccc3F)CC2C)cc1` (centres undefined), inactive: 2.83%. For `CC(=O)Nc1nonc1-c1nnc(SCC(=O)Nc2cccc(F)c2)n1-c1ccccc1` the value was inactive: -15.3%; for `Cc1ccc(CN2CCCn3nc(C(=O)NC(C)C)cc3C2=O)cc1`, inactive: 10.1%.

With `COc1ccc(C)cc1NC(=O)Cn1c(=O)c(C(F)(F)F)nc2ccccc21`, the activation was inactive: 1.99%.

On to `CN(C)S(=O)(=O)c1ccc2c(c1)N(CC(=O)NCc1ccc(F)cc1)C(=O)CS2`, for which the activation was inactive: -25.4%. Turning to `Cc1ccc(NC(=O)Cn2cc3c(n2)CCCC3)c(Cl)c1`, the activation is inactive: -2.87%.

For the compound `CNc1c2c(nn1C)CCCC2`, the activation was inactive: 0.585%. For `COc1ccccc1N1CCN(c2ccc(=O)n(CC(=O)NCc3ccc(OC(C)C)cc3)n2)CC1` the value was inactive: 27.1%. For `COc1ccc(Oc2c(C(F)(F)F)oc3c(CN4CCCC(C)C4)c(O)ccc3c2=O)cc1` (centres undefined) the value was inactive: -21.7%; for `Cc1cccc(-c2nc3scc(CCNS(=O)(=O)c4ccc(Oc5ccccc5)cc4)n3n2)c1`, inactive: -1.7%; for `Cc1nn(C)c2c1c(C(F)(F)F)cc(=O)n2CC(=O)NCCC(C)C`, inactive: -11.9%. On to `CC1=C(c2ccc(C)cc2)S(=O)(=O)NC1=NCCCN1CCN(c2ccccc2F)CC1`, for which the activation was inactive: 6.72%. For `COc1ccc(-n2nc(C(=O)N3CCN(c4ccc(F)cc4)CC3)c3c4ccccc4n(C)c3c2=O)cc1` the value was inactive: 17%; for `COc1ccc(-n2nc(C(=O)Nc3cc(OC)c(OC)c(OC)c3)c(=O)n(C)c2=O)cc1`, inactive: -14.1%. For `O=C(Nc1ccc2oc(-c3cccnc3)nc2c1)c1ccc(-c2ccccc2OC(F)(F)F)o1`, the activation is inactive: 16.2%. For `COc1ccc(-c2cc3ccc(O)c(CN4CCC(C)CC4)c3oc2=O)cc1` the value was inactive: -3.1%. For `O=C(O)c1ccc(Nc2nc3ccccc3n3cnnc23)cc1` the value was inactive: -2.74%. For `Cc1cc(C)n(-c2nc3ccccc3nc2Nc2ccc(Cl)cc2Cl)n1` the value was inactive: -3.27%; for `CCn1c(=O)c2cc(C(=O)NCCCOC)sc2c2ccccc21`, inactive: -12.3%; for `CC(=O)N1CCCc2cc(S(=O)(=O)NCc3cccc(C)c3)ccc21`, inactive: 10.2%. For the compound `COc1ccc(CNC(=O)CCC2N=C3c4ccccc4N=C(SCc4cccc(F)c4)N3C2=O)cc1` (centres undefined), the activation was inactive: -8.19%. For the compound `CCCN(CCC)C(=O)Cn1nnc2sc(-c3ccccc3)cc2c1=O`, the activation was inactive: -2.31%. For `O=c1c2cnn(-c3ccc(F)cc3)c2ncn1Cc1cccc(Cl)c1` the value was inactive: 6.86%; for `Cc1ccc(C(=O)c2cn(Cc3cccc(C)c3)c3nc(C)ccc3c2=O)cc1`, inactive: -17.2%.

Regarding `Cc1nn2c(=O)cc(COC(=O)c3cccc(NC(=O)COc4ccccc4Cl)c3)nc2s1`, the activation is inactive: -11.8%. Take `Cc1ccc(CNC(=O)c2nc(SCc3ccc(F)cc3)ncc2Cl)cc1`: the activation is inactive: -22.3%. For `CC(C)Oc1ccc(CNS(=O)(=O)c2ccc3c(c2)C(C)(C)C(=O)N3C)cc1` the value was inactive: -1.99%; for `COc1ccc(NC(=O)Cn2c(=O)n(-c3ccccc3)c(=O)c3c4c(sc32)CCCC4)c(OC)c1`, inactive: -20%; for `Cc1cc(C)n2c(Nc3ccc4c(c3)OCCO4)c(-c3ccc(Cl)cc3)nc2n1`, inactive: -35.2%. For `COc1ccc(S(=O)(=O)n2nc(C)c(S(=O)(=O)N3CCCCCC3)c2C)cc1` the value was inactive: 22.1%; for `COC(=O)c1cc(S(=O)(=O)N2CCN(c3ccc(OC)cc3)CC2)c[nH]1`, inactive: -13.7%; for `COc1cccc(NC(=O)CSCc2cc(=O)c3ccc(C)c(C)c3[nH]2)c1`, inactive: 9.77%. For `CCC(=O)N1CCc2cc(S(=O)(=O)NC(CC(C)C)C(=O)NCCc3cccc(C)c3)ccc21` (centres undefined) the value was active: 64.6%.

For the compound `O=c1ccc2cc(S(=O)(=O)NCc3ccc(Br)cc3)ccc2[nH]1`, the activation was inactive: 14.9%. Turning to `Cc1ccc(NC(=O)CSc2nccn2Cc2ccco2)cc1Cl`, the activation was inactive: -4.58%.

As to `Cn1c(=O)c2c(n3c4ccccc4nc13)NC(=O)CC2c1cccc(F)c1` (centres undefined), the activation is inactive: -0.188%. For `COc1ccc(-c2onc(C)c2C)cc1S(=O)(=O)NCC(C)c1ccccc1` (centres undefined) the value was inactive: -7.88%; for `Cc1cc(NC(=O)COCc2cc(-c3ccc(F)cc3)on2)ccc1Br`, inactive: 2.17%.

In the case of `CCNc1ccc(-c2nc(-c3ccccn3)no2)cc1[N+](=O)[O-]`, the activation was inactive: -2.86%. For `O=C(CCCCn1c(=O)c2ccccc2n(Cc2ccccc2Cl)c1=O)NCc1ccc2c(c1)OCO2`, the activation is inactive: -6.82%. For `CCCn1c2ccccc2c2cnn(CC(=O)N3CCN(c4ccccc4F)CC3)c(=O)c21` the value was inactive: -10.5%. For `CCOc1ccc(CCNS(=O)(=O)c2c(C)nc3scc(C)n3c2=O)cc1OCC` the value was inactive: -5.36%. For `COC(=O)C1=C(C)NC(C)=C(C(=O)OCC(C)C)C1c1ccccc1[N+](=O)[O-]` (centres undefined) the value was inactive: 38.7%; for `Cc1ccc(C)c(NC(=O)N2CCC(CN3CCOCC3)CC2)c1`, inactive: -10.7%.

Consider `CCOc1ccc(CNC(=O)c2ccc3nc(CC)c(CC)nc3c2)cc1`, for which the activation is inactive: -17.8%. As for `CC(C)Oc1cccc(C(=O)Nc2ccc3oc(-c4cccc(Cl)c4)nc3c2)c1`, the activation was inactive: 3.95%. For `COc1cccc(N2CCN(C(=O)CCCn3c(=O)[nH]c4ccc(Br)cc4c3=O)CC2)c1` the value was inactive: 45.8%. For `Cc1ccc(Nc2c(-c3ccc(Cl)cc3)nc3sccn23)c(C)c1` the value was inactive: -22.4%.

As for `CCN(CC)C(=O)c1sc2c(c1C)c(=O)n(-c1ccc(Cl)c(Cl)c1)c(=O)n2Cc1cc(=O)n2ccccc2n1`, the activation was inactive: -15.5%.

Regarding `COc1cccc(CNC(=O)Cn2c(=O)n3nc(-c4cccc(F)c4)nc3c3ccccc32)c1`, the activation was inactive: 19.6%.
